Read-outs that look alike come from different tables or passages of the source.
Tests used:
PanK3 = PanK3 (Homo sapiens, UniProt Q9H999); assay type: biochemical; settings: PanK3 kinetics
ATP–PanK3 complex = ATP–PanK3 complex (Homo sapiens, UniProt Q9H999); assay type: binding

UniProt Q9H999, sequence (Q9H999 whole entry): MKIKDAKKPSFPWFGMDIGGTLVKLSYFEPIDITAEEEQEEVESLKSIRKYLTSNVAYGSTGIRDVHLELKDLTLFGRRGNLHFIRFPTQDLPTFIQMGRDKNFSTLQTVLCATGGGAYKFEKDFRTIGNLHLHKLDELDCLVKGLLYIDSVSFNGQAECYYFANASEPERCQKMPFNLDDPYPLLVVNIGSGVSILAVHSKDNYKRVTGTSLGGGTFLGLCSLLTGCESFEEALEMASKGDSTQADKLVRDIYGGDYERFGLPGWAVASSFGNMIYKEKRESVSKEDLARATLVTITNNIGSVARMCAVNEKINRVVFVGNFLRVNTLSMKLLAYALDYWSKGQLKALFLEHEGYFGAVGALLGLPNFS

effect on Vmax and Km for ATP (PanK3): lowered both the Vmax and Km for ATP | thermal stabilization of PanK3 (ATP–PanK3 complex; ATP absent): did not stabilize | thermal stabilization of PanK3 (ATP–PanK3 complex; in the presence of 2 mM ATP/Mg2+): increased
Compound: CSc1cccc(NC(=O)CCc2c(C)nc3c4cccnc4nn3c2C)c1 [Compound 7]
